# The supplement of paper PMC10126150
# Sequences with one replicate were seen in a single cluster, so their values are uncertain.
# System: ATP
# Assay: switch fluorescence ratio, 500 uM ATP over buffer (Cy3 cluster intensity, sum of 5 cycles each) (fold (ratio)); higher = stronger signal-on switching upon ATP binding; sequences stand for … in TCGTCGGCAGCGTCAGATGTGTATAAGAGACAGTTTTTTTTTTTTTTTTTTTTTTTTT…TC
# Settings: aptamer strand: ATP DNA aptamer (quencher-CACCTGGGGGAGTATTGCGGAGGAAGG + anchor), 100 nM annealed; ATP concentration: 500 uM; one replicate
# Procedure, shortened: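 For every switch-domain sequence, the fluorescence ratio is the mean of per-cluster values, each being summed target-cycle Cy3 intensity over summed buffer-cycle Cy3 intensity. Clusters outside 100-1000 RFU were excluded. On a modified Illumina MiSeq flow-cell, the Cy3-labelled switching-strand clusters were annealed to 100 nM quencher-labelled ATP aptamer, imaged in selection buffer and then after 15 min with 500 uM ATP at 22 °C. Five such cycles were run, with NaOH stripping and re-annealing between them.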
# 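Also: ATP exposure 15 min at 22 °C before imaging.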
row,Sequence,switch fluorescence ratio
1,GTTATGATTA,1
2,GTTATGCGTT,0.987
3,GTTATGGGA,0.99
4,GTTATGGTG,0.987
5,GTTATGTGGG,0.956
6,GTTATTAGGC,1.03
7,GTTATTTCGG,0.981
8,GTTATTTGGC,1.01
9,GTTCAAAGTT,0.984
10,GTTCAAGATG,0.962
11,GTTCACAGAG,1.06
12,GTTCAGACAG,1
13,GTTCAGCGGT,1.03
14,GTTCATAGGC,1.01
15,GTTCATATGG,1.02
16,GTTCATTAAG,0.991
17,GTTCATTACA,1.03
18,GTTCCATAGT,1.02
19,GTTCCATAT,1.03
20,GTTCCCGGT,1.02
21,GTTCCGCCCC,2.42
22,GTTCCTTGTA,0.99
23,GTTCGAGGAC,1.02
24,GTTCGAGGG,0.964
25,GTTCGCTCCT,1.08
26,GTTCGGATTT,1.01

row,Sequence,switch fluorescence ratio
1,GTTCTACCCC,1.12
2,GTTCTACCGT,1.01
3,GTTCTGTCAT,0.961
4,GTTCTGTCCA,0.997
5,GTTCTTAGTT,0.952
6,GTTCTTATCT,0.987
7,GTTCTTTAGA,0.998
8,GTTGAATACG,1.01
9,GTTGACGATT,1.04
10,GTTGAGAAAA,0.987
11,GTTGATAGC,1.05
12,GTTGCCAAAA,0.958
13,GTTGCCAACT,1
14,GTTGCCCCCA,1.02
15,GTTGCCGGAC,1.01
16,GTTGCGATTA,1.02
17,GTTGCGCTTT,1.07
18,GTTGCTTCGG,0.987
19,GTTGGACCTA,1.01
20,GTTGGACTGA,1
21,GTTGGAGTAT,1.02
22,GTTGGATGTT,0.988
23,GTTGGCGAGG,1.02
24,GTTGGCTGAG,1.05
25,GTTGGGCTGC,0.99
26,GTTGGTTTTA,1.01

row,Sequence,switch fluorescence ratio
1,GTTGTAAGTC,0.993
2,GTTGTACGTA,1.03
3,GTTGTCAAGG,0.999
4,GTTGTCAGAA,1.03
5,GTTGTCTACA,0.994
6,GTTGTGCAGG,1.03
7,GTTGTGTAGT,1.02
8,GTTGTTAGCT,1.01
9,GTTGTTCCCG,1.04
10,GTTGTTCTAG,0.979
11,GTTGTTGGTA,0.986
12,GTTGTTGTCA,1
13,GTTTAAATCA,0.996
14,GTTTAAGAGA,1.02
15,GTTTAAGGC,0.892
16,GTTTAATGAA,1.01
17,GTTTACCGAT,0.989
18,GTTTACGCTA,1.29
19,GTTTACTGG,0.963
20,GTTTAGTTGA,0.972
21,GTTTATAGT,1
22,GTTTATTGTG,1.01
23,GTTTCACGCC,1.04
24,GTTTCACTTC,0.96
25,GTTTCAGGC,1.04
26,GTTTCATGGC,0.984

row,Sequence,switch fluorescence ratio
1,GTTTCCATAG,0.997
2,GTTTCCGGAT,1.1
3,GTTTCCTAGG,1.01
4,GTTTCGACGC,1.26
5,GTTTCGTGCA,1.03
6,GTTTCTAAAC,1
7,GTTTCTCAGT,1.06
8,GTTTCTTGCT,0.993
9,GTTTGAAGGA,0.956
10,GTTTGACTAT,0.974
11,GTTTGCAATA,1.52
12,GTTTGCACAG,0.999
13,GTTTGCGAAA,1
14,GTTTGGCCAG,1.04
15,GTTTGTCTGT,1
16,GTTTTAAGCG,0.944
17,GTTTTAGCC,0.993
18,GTTTTAGGAT,1.03
19,GTTTTAGGTC,0.956
20,GTTTTCAAT,1
21,GTTTTCATTT,0.969
22,GTTTTGCCTA,0.955
23,GTTTTGTCAC,1.03
24,GTTTTGTTCT,0.987
25,GTTTTTCATG,0.99
26,TAAAAAAGCA,1.15

row,Sequence,switch fluorescence ratio
1,TAAAAAGTGC,0.991
2,TAAAAATAAC,1.22
3,TAAAACAGCC,0.983
4,TAAAACTGGG,0.976
5,TAAAAGAAG,0.99
6,TAAAAGTAAT,0.965
7,TAAAAGTTGC,0.961
8,TAAAATAGGC,1.13
9,TAAAATATAG,1.05
10,TAAACATCA,1.04
11,TAAACCTTAT,1.48
12,TAAACGCGAC,2.34
13,TAAACTGGCG,0.834
14,TAAACTTTTC,1.01
15,TAAAGACTAG,1.05
16,TAAAGAGCCG,0.989
17,TAAAGATTAA,1.04
18,TAAAGATTAC,1.05
19,TAAAGCCGAG,1
20,TAAAGGCATT,1.01
21,TAAAGTGACG,1.01
22,TAAAGTGATC,0.938
23,TAAATAACCC,1.02
24,TAAATAGAT,1.01
25,TAAATATGTT,1.02
26,TAAATCTTGT,1.45

row,Sequence,switch fluorescence ratio
1,TAAATGAAAG,1.03
2,TAAATGAACA,1.03
3,TAAATGACGC,1.12
4,TAAATGCGC,0.99
5,TAAATGTCAG,1.03
6,TAAATTCAAT,0.976
7,TAAATTGCCT,0.985
8,TAAATTTCGT,1.03
9,TAACAACGGT,1.03
10,TAACAAGAGG,1
11,TAACAATAGG,0.988
12,TAACACGGCA,1.1
13,TAACAGAACA,1.02
14,TAACATCTCA,1.01
15,TAACCGCCGG,1.05
16,TAACCTGAAG,1.19
17,TAACGAAGAA,1.02
18,TAACGACAAA,1.04
19,TAACGAGTCC,1.02
20,TAACGTACGC,1.42
21,TAACGTCCGT,1.02
22,TAACGTTTCC,1.55
23,TAACTAATAC,1.32
24,TAACTAATCC,1.07
25,TAACTCCGGG,1.1
26,TAACTCCTTT,1.02

row,Sequence,switch fluorescence ratio
1,TAACTGGTCA,1.02
2,TAACTTCGG,1.02
3,TAACTTCTGA,1.07
4,TAACTTGTAG,0.981
5,TAAGAAACC,1.35
6,TAAGAACTGC,1.04
7,TAAGACAAGA,0.975
8,TAAGACCCCT,1.09
9,TAAGACTAGG,1.03
10,TAAGAGAACG,0.956
11,TAAGAGACAC,0.975
12,TAAGATATAA,1
13,TAAGATATAT,1.05
14,TAAGATCGGA,0.946
15,TAAGATCTTC,1.05
16,TAAGATGCGG,1.02
17,TAAGATTAGT,0.994
18,TAAGCAAA,1.04
19,TAAGCACAA,1.11
20,TAAGCATGTC,1.13
21,TAAGCCGACA,1.04
22,TAAGCGGTGG,0.953
23,TAAGCTATAT,1.23
24,TAAGCTGGGT,1.03
25,TAAGCTTAAG,0.942
26,TAAGCTTTGC,0.948

row,Sequence,switch fluorescence ratio
1,TAAGGAGTAT,1.02
2,TAAGGATAGA,1.02
3,TAAGGATAGG,0.988
4,TAAGGATTTA,0.95
5,TAAGGCTAAG,1
6,TAAGGCTATT,1.01
7,TAAGGGAGAT,1.01
8,TAAGGGCTGT,0.971
9,TAAGGGCTTT,0.998
10,TAAGGGTTGT,1.02
11,TAAGGTACAG,1
12,TAAGGTCGT,1.02
13,TAAGGTTCTG,0.995
14,TAAGGTTGAA,0.957
15,TAAGGTTTAC,0.99
16,TAAGTAAGAT,1.07
17,TAAGTACGCT,1.24
18,TAAGTCATCG,1.03
19,TAAGTCCTCG,1
